# From article PMC4791575 (ACS Infectious Diseases, 2016)
# Tests used:
# Assay in all cases: microbe, parasite or virus in culture
# [1] = tested on: L. major intracellular amastigotes; type: cell-based, Leishmania major; conditions: for EC50: Leishmania major, read-out: Leishmania Amast pEC50 (converted)
# P. falciparum D6 = type: cell-based, Plasmodium falciparum; conditions: for EC50: Plasmodium falciparum, D6, read-out: P. falciparum D6 pEC50 (converted)
# T. brucei cells = type: cell-based, Trypanosoma brucei; conditions: for EC50: Trypanosoma brucei, read-out: T. brucei pEC50 (within 46%) (converted)
# L. major promastigotes = type: cell-based, Leishmania major; conditions: for EC50: Leishmania major, read-out: Leishmania Promast pEC50 (converted)
# [2] = tested on: T. cruzi intracellular amastigotes (Tulahuen strain); type: cell-based; conditions: Trypanosoma cruzi, read-out: T. cruzi pEC50 (μM) (within 21%) (converted)
# P. falciparum C235 = type: cell-based, Plasmodium falciparum
# P. falciparum W2 = type: cell-based, Plasmodium falciparum
smiles,measurement,setting,value
"CC[C@H](CO)Nc1nc(NCc2ccccc2)c2ncn(C(C)C)c2n1 [NEU-977, roscovitine]",EC50,[1],> 15800 nM
same,EC50,P. falciparum D6,794 nM
same,EC50,T. brucei cells,> 3160 nM
same,EC50,L. major promastigotes,6310 nM
same,EC50,[2],> 50.1 µM
"O=C1NC(=O)C(c2ccccc2[N+](=O)[O-])=C1Nc1ccc(O)c(Cl)c1 [NEU-986, SB 41528622]",Leishmania Amast pEC50,[1],<4.8
same,P. falciparum D6 pEC50,P. falciparum D6,4.8
same,T. brucei pEC50 (within 46%),T. brucei cells,6.1
same,Leishmania Promast pEC50,L. major promastigotes,<4.6
same,P. falciparum C235 pEC50,P. falciparum C235,4.6
same,P. falciparum W2 pEC50,P. falciparum W2,4.6
"CCc1cnn2c(NCc3ccc[n+]([O-])c3)cc(N3CCCC[C@H]3CCO)nc12 [NEU-975, dinaciclib]",EC50,[1],2510 nM
same,EC50,P. falciparum D6,1260 nM
same,EC50,T. brucei cells,39.8 nM
same,EC50,L. major promastigotes,1580 nM
same,EC50,[2],0.1 µM
same,EC50,"P. falciparum C235; Plasmodium falciparum, read-out: P. falciparum C235 pEC50 (converted)",316 nM
same,EC50,"P. falciparum W2; Plasmodium falciparum, W2, read-out: P. falciparum W2 pEC50 (converted)",794 nM
